Reference: PubChem BioAssay AID2147 (National Center for Advancing Translational Sciences (NCATS), 2009)
“And” between values parts separate entries of the source, which are not always exact repeats. Equal entries are not always repeated. The whole screen tested about 230,000 compounds, of which about 3,600 (1.6%) were called active. Inconclusive results, whose numbers are uncertain, are shown with a selection of clear calls. Calls come from the whole dose curve; as a rule, active = well fitted inhibition curve with a large enough effect (not every such curve was filed as active); inconclusive = small, poorly fitted or top-dose-only effect, or another doubt; inactive = no such curve, though single readings can be large or run the other way. A potency beside an inconclusive call is a rough fit, not a confirmed value.

Molecular target: Lysine-specific demethylase 4E (Homo sapiens) (UniProt B2RXH2)
Assay: qHTS Assay for Inhibitors of Human Jumonji Domain Containing 2E (JMJD2E)
Details: JMJD2E catalytic domain, FDH-coupled NADH fluorescence (FDH is formaldehyde dehydrogenase); series mostly up to 57.1 µM; activity change, negative = inhibition: at the top concentration
Note: nearly all actives have a fitted effect of over 50% in size.
Potency is the fitted concentration of half-maximal effect; tags give direction and shape of the fitted curve.
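Throughout, for activity change, negative = inhibition: 0% = wells with enzyme and -100% = buffer wells without enzyme.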

Chain of UniProt B2RXH2 (B2RXH2 whole entry, looked up, the tested form may be a part): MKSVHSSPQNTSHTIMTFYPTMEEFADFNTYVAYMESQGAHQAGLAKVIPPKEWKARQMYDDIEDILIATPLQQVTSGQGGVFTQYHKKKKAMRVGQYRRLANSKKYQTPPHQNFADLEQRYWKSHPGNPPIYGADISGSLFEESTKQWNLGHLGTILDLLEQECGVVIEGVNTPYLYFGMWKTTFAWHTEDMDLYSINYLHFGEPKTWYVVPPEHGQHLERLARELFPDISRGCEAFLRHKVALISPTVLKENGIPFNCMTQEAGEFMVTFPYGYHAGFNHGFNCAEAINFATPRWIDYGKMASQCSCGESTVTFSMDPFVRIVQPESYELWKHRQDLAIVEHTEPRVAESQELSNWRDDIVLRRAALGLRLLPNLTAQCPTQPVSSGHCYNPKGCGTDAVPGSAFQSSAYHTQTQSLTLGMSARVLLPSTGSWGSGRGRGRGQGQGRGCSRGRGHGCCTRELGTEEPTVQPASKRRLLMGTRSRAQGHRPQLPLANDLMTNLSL

Row | SMILES | activity change, negative = inhibition | Potency
1 | Cc1nnc(NC(=O)c2cccc(S(=O)(=O)N3CCOCC3)c2)s1 | inactive: -5.23% | –
2 | CCCCn1c(=O)[nH]c(=O)c2c1nc(-c1ccc(OCCC)c(OCC)c1)n2C | – | inconclusive: 0.891 µM [inhibitor, partial curve]
3 | CSc1nc(N)nc(SCC(=O)C23CC4CC(CC(C4)C2)C3)c1C#N | inactive: -22.9% | –
4 | CCC(NC(C)C)C(O)c1ccc(O)c(O)c1 (centres undefined) | – | active: 15.8 µM and active: 12.6 µM
5 | CCn1c(=O)c(=O)[nH]c2cc(C(=O)NCC3CCCCC3)ccc21 | – | inconclusive: 28.2 µM [inhibitor, partial curve]
6 | Cc1[nH]n(-c2ccccc2)c(=O)c1/C=N/c1ccccn1 | – | inconclusive: 39.8 µM [inhibitor, single point]
7 | CCn1c(SCC(=O)NCc2ccccc2)nc2c(c1=O)SC(C)C2 (centres undefined) | inactive: -1.42% | –
8 | Cc1ccc2nc3sc(C(=O)N4CCOCC4)c(N)c3cc2c1 | inactive: 7.53% | –
9 | Cc1cc(NC(=O)CSc2nnc(-c3ccco3)n2Cc2ccco2)no1 | inactive: 4% | –
10 | O=C(Nc1ccc(-c2nc3ncccc3o2)cc1)c1ccc(Br)o1 | – | inconclusive: 20 µM [inhibitor, partial curve]
11 | CCN1CCN(c2c(C(=O)c3ccc(OC)cc3)cnc3ccccc23)CC1 | – | inconclusive: 31.6 µM [inhibitor, single point]
12 | O=C(Cc1coc2ccc3ccccc3c12)N1CCN(c2ncccn2)CC1 | – | inconclusive: 35.5 µM [inhibitor, single point]
13 | O=C(Nc1nncs1)c1ccccc1NS(=O)(=O)c1cccs1 | – | inconclusive: 31.6 µM [inhibitor, partial curve]
14 | Cc1ccc(-c2nn(-c3ccccc3)cc2C(=O)N2CCN(c3ccccn3)CC2)cc1 | – | inconclusive: 39.8 µM [inhibitor, single point]
15 | COc1ccc2cc3cc(C(=O)NCCN4CCN(c5ccccc5F)CC4)oc3nc2c1 | – | inconclusive: 14.1 µM [inhibitor, partial curve]
16 | CCN(C(=O)CSc1nc(-c2ccccc2)c(-c2ccccc2)[nH]1)C1CCS(=O)(=O)C1 (centres undefined) | – | inconclusive: 35.5 µM [inhibitor, single point]
17 | CCOC(=O)C(C)n1nc(/C=C/c2ccc(OC)cc2)ccc1=O (centres undefined) | – | inconclusive: 31.6 µM [inhibitor, partial curve]
18 | Cc1cc(NC(=O)c2c(F)cccc2F)n(-c2nc3ccccc3[nH]2)n1 | – | inconclusive: 28.2 µM [inhibitor, single point]
19 | CCCC(=O)Nc1nc2ccc(C(=O)OCC)cc2s1 | – | inconclusive: 35.5 µM [inhibitor, single point]
20 | COc1cccc(OCc2cc(/C=N/NC(=O)c3nc(Cl)c(Cl)c(N)c3Cl)ccc2OC)c1 | – | inconclusive: 35.5 µM [inhibitor, single point]
21 | Cc1ccc(NC(=O)CCCCCC2NC(=O)NC2C)cc1 (centres undefined) | inactive: -1.49% | –
22 | COc1c2ccoc2nc2c(OC)c(O[C@@H]3O[C@H](C)[C@@H](O)[C@@H](O)[C@H]3O)ccc12 | – | inconclusive: 28.2 µM [inhibitor, partial curve]
23 | Cc1ccc(S(=O)(=O)N(C(=O)c2ccncc2)c2ccc(OC(=O)c3ccncc3)c3ccccc23)cc1 | – | active: 15.8 µM

Row | SMILES | activity change, negative = inhibition | Potency
24 | COC(=O)C1=C(C)NC2=C(C(=O)CC(C)(C)C2)C1c1cnn(C)c1C (centres undefined) | – | inconclusive: 31.6 µM [inhibitor, partial curve]
25 | Cc1cc(C)n(-c2ccccc2C#N)n1 | – | inconclusive: 11.2 µM [inhibitor, partial curve]
26 | COc1ccccc1NC(=O)CSc1nnc2ccc(-c3cccnc3)nn12 | inactive: -9.13% | –
27 | CC(=O)N1N=C(c2ccc(Cl)cc2)OC1(C)C | – | inconclusive: 28.2 µM [inhibitor, partial curve]
28 | COc1ccc(C2=C(C=C(C#N)C#N)C(c3ccccc3C)c3ccccc3O2)cc1OC (centres undefined) | – | inconclusive: 3.16 µM [inhibitor, full curve, poor fit]
29 | COC(=O)C1=C(C(=O)OC)[C@@H]2Nc3ccccc3[C@@]23C[C@@H](C(=O)OC)N(S(=O)(=O)c2ccc(C(F)(F)F)cc2)C3=N1 | inactive: 5.33% [at 11.4 µM] | –
30 | O=C(Nc1cccc(-c2cn3cccnc3n2)c1)c1ccco1 | – | inconclusive: 28.2 µM [inhibitor, partial curve]
31 | COc1cccc(N=Cc2c(O)n(-c3cccc(C)n3)c(=O)c3ccccc23)c1 | – | inconclusive: 31.6 µM [inhibitor, single point]
32 | C=C(Cl)COc1ccc2c(CCC)cc(=O)oc2c1 | – | inconclusive: 28.2 µM [inhibitor, partial curve]
33 | O=C(N/N=C/c1ccc([N+](=O)[O-])o1)c1cc2ccccc2o1 | inactive: 3.6% | –
34 | COCc1c(N)c(C)nc(Cl)c1C#N | – | inconclusive: 35.5 µM [inhibitor, single point]
35 | C=CCOC(=O)C1=C(C)NC(SCC(=O)Nc2ccc(C)c(Cl)c2)=C(C#N)C1c1ccco1 (centres undefined) | – | inconclusive: 28.2 µM [inhibitor, partial curve]
36 | Cc1ccccc1NCc1ccc(O)c2ncccc12 | – | active: 7.08 µM
37 | CCCCCc1ccc(-c2ccc(/C=C/C(=O)O)cc2)nc1 | – | inconclusive: 31.6 µM [inhibitor, single point]
38 | COC(=O)N1CC=CC1(C)C(=O)NCc1ccc(C)o1 (centres undefined) | inactive: -84.7% | –
39 | Cc1ccc(C(=O)Nc2c(C)cc(-c3ccc(Cl)cc3)oc2=O)cc1 | – | inconclusive: 10 µM [inhibitor, partial curve]
40 | Cc1ccc(S(=O)(=O)N(C)CC(=O)N2CCN(C(=O)c3ccco3)CC2)cc1 | inactive: 3.82% | –
41 | COc1cc(NC(=O)Nc2ccc(Cl)c(Cl)c2)c(C(=O)O)cc1OC | – | inconclusive: 25.1 µM [inhibitor, partial curve]
42 | Cc1cccc(C(C)C)c1NC(=O)COC(=O)COc1ccc2c(C)cc(=O)oc2c1 | – | inconclusive: 28.2 µM [inhibitor, partial curve]
43 | O=C(CSc1nc(-c2ccccc2)c(-c2ccccc2)o1)NC1CCS(=O)(=O)C1 (centres undefined) | – | inconclusive: 39.8 µM [inhibitor, single point]
44 | O/N=C/c1cn(-c2ccccc2)nc1-c1ccc2c(c1)OCCO2 | – | inconclusive: 39.8 µM [inhibitor, single point]
45 | CN(c1ccccc1)S(=O)(=O)c1cccc(NC(=O)Nc2ccc(Cl)cc2C#N)c1 | – | inconclusive: 35.5 µM [inhibitor, single point]
46 | Cc1ccc(-c2nc(CSCC(=O)N3CCOCC3)c(C)o2)cc1 | – | inconclusive: 39.8 µM [inhibitor, single point]

Row | SMILES | activity change, negative = inhibition | Potency
47 | Cc1nc2cc(NCc3nc4ccccc4n3Cc3ccccc3)ccc2n1C | – | inconclusive: 28.2 µM [inhibitor, single point]
48 | CCN1C(=O)CSc2ccc(C(=O)NCc3ccco3)cc21 | inactive: 10.5% | –
49 | Cc1ccccc1Cn1nc(C)c(NC(=O)c2cc3nc(-c4ccco4)cc(C(F)(F)F)n3n2)c1C | – | inconclusive: 31.6 µM [inhibitor, single point]
50 | CC(C)CCNC(=O)C1CC(c2ccccc2C(F)(F)F)=NO1 (centres undefined) | inactive: -5.12% | –
51 | CCOC(=O)N1CCN(CC(O)COCC2=CCC3CC2C3(C)C)CC1 (centres undefined) | – | inconclusive: 39.8 µM [inhibitor, single point]
52 | c1ccc(OCc2nc3ccccc3s2)cc1 | inactive: -1.68% | –
53 | COc1ccc(CCN2C(=S)N(C)C(=O)C2CC(=O)Nc2ccc(OC)cc2)cc1 (centres undefined) | inactive: -5% | –
54 | N#Cc1c(-c2ccc(Cl)cc2)c2c([nH]c1=O)-c1ccccc1OC2 | – | inconclusive: 31.6 µM [inhibitor, partial curve]
55 | N=C1/C(=C\c2coc3ccccc3c2=O)C(=O)N=C2SC=CN12 | – | inconclusive: 22.4 µM [inhibitor, partial curve]
56 | COC(=O)C1=C(C)NC(C)=C(C(=O)OC)C1c1ccco1 | inactive: -6.95% | –
57 | Cc1cccc2cc(C#N)c(NCCCn3ccnc3)nc12 | – | inconclusive: 25.1 µM [inhibitor, partial curve]
58 | CCOC(=O)c1ccccc1NC(=O)/C(C)=C/C(=O)O | – | inconclusive: 25.1 µM [inhibitor, partial curve]
59 | COCCCNC(=O)c1c(N)n(-c2ccccc2)c2nc3ccccc3nc12 | – | inconclusive: 28.2 µM [inhibitor, partial curve]
60 | CCc1ccc2[nH]c(=O)c(CN(CCN3CCCC3)C(=O)NC3CCCCC3)cc2c1 | – | inconclusive: 28.2 µM [inhibitor, partial curve]
61 | O=C(OCC#CCSc1nc2ccccc2o1)c1ccco1 | inactive: -7.24% | –
62 | Nc1ccc(-c2nc3ccc(N)cc3[nH]2)cc1 | – | inconclusive: 28.2 µM [inhibitor, partial curve]
63 | COC(=O)c1ccc(NC(=O)c2ccc(N(C)S(C)(=O)=O)cc2)cc1 | – | inconclusive: 35.5 µM [inhibitor, single point]
64 | Cc1[nH]nc2c1C(c1ccc(O)cc1)C1=C(CC(C)(C)CC1=O)N2 (centres undefined) | – | inconclusive: 22.4 µM [inhibitor, partial curve]
65 | COc1ccc(S(=O)(=O)Cc2ccc(C(=O)N3CCN(Cc4ccccc4)CC3)o2)cc1 | inactive: -9.33% | –
66 | O=C(CSc1nc2c(cnn2-c2ccccc2)c(=O)[nH]1)N1CCOCC1 | inactive: -2.07% | –
67 | O=C(CNc1ccc(F)cc1)c1ccccc1 | inactive: 11% | –
68 | Nc1c(Cl)cc(Cl)cc1C(=O)OCC(=O)N1CCOCC1 | – | inconclusive: 25.1 µM [inhibitor, partial curve]
69 | Fc1cccc(-c2nnn3c2nc(Cl)c2ccccc23)c1 | – | inconclusive: 25.1 µM [inhibitor, partial curve]
